# Test results from PubChem BioAssay AID720708 (National Center for Advancing Translational Sciences (NCATS), 2013).
# The whole screen tested about 360,000 compounds, of which about 660 (0.18%) were called active. The shares of active, inactive and inconclusive entries below differ from those in the screen. Calls follow the shape of the dose curve; as a rule, active = well fitted inhibition curve with a large enough effect; inconclusive = small, poorly fitted or top-dose-only effect; inactive = no such curve, though single readings can be large or run the other way. No potency is given beside an inconclusive call; the fits are too rough.
# Biological target: Rap guanine nucleotide exchange factor 4 (Homo sapiens) (UniProt Q8WZA2)
# Chain of UniProt Q8WZA2 (Q8WZA2 whole entry, looked up): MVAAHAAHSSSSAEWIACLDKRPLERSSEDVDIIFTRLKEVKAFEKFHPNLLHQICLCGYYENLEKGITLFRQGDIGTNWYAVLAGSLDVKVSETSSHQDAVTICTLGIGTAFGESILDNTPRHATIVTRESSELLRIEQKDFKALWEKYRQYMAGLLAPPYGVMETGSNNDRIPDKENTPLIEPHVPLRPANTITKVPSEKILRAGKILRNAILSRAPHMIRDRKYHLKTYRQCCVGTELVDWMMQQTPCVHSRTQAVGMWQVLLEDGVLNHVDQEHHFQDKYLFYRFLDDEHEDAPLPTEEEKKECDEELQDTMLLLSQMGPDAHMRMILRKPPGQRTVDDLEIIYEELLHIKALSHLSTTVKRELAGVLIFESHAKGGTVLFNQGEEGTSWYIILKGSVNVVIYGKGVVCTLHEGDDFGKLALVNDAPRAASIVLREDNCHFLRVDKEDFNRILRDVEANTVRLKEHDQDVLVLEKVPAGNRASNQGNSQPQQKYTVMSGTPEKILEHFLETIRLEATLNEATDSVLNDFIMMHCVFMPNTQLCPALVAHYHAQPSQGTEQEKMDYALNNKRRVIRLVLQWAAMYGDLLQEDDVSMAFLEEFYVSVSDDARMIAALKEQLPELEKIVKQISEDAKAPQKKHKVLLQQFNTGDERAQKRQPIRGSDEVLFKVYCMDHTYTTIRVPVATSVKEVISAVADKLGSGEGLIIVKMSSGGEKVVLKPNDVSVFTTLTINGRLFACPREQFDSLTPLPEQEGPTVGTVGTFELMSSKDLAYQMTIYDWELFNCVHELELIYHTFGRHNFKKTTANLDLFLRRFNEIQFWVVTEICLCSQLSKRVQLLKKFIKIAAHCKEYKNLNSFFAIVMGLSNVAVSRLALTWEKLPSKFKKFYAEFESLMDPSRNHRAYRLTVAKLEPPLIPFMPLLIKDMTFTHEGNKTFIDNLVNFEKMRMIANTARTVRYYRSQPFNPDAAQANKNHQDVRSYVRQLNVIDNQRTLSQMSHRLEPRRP
# Assay: qHTS for Antagonist of cAMP-regulated guanine nucleotide exchange factor 2 (EPAC2): primary screen; also: nearly all actives have a fitted effect of over 45% in size
# Details: EPAC2 GEF exchange of Rap1B-BODIPY-GDP, fluorescence; activity, negative = inhibition: at 114 µM (top of the series) unless noted
# % is scaled to controls: 0 for no effect and ±100 for the full control effect; potency is read from the fitted curve at half-maximal effect; tags tell the direction and shape of the fitted curve.
SMILES,Potency,"activity, negative = inhibition"
COc1cccc(-c2nc(N3CCN(c4ccccc4)CC3)c3ccccc3n2)c1O,"inconclusive [inhibitor, single point]",–
O=C(Nc1ccccc1Cl)c1ccccc1Oc1ccc(C(F)(F)F)cc1[N+](=O)[O-],–,inactive: -7.68%
Cc1cc(C)c(C#N)c(SCc2ccccc2C)n1,–,inconclusive: -1.59% [inhibitor]
COc1ccc(-c2csc3ncn(-c4ccc(C)cc4)c(=O)c23)cc1OC,active: 44.7 µM,–
CC(c1ccon1)N(C)Cc1cn(C)nc1-c1cccc(Cl)c1 (stereo not drawn),"inconclusive [inhibitor, partial curve, poor fit]",–
CC1(C(=O)NS(=O)(=O)c2cccc(C#N)c2)CCN1C(=O)C1(c2ccc(Cl)cc2)CCC1 (stereo not drawn),"inconclusive [inhibitor, full curve, poor fit]",–
COc1cc(C(=O)N2CCc3ccccc32)c([N+](=O)[O-])cc1OC,"inconclusive [inhibitor, partial curve, poor fit]",–
OC(c1ccccc1)(c1nc(-c2cc(F)cc(F)c2)cs1)C(F)(F)F (stereo not drawn),"inconclusive [inhibitor, full curve]",–
CC(C)(C)C(=O)CC1(O)C(=O)N(Cc2ccc(Cl)cc2)c2ccccc21 (stereo not drawn),"inconclusive [inhibitor, single point]",–
NC(=O)C1CCN(c2ccc3c(c2)S(=O)(=O)c2ccccc2C3=O)CC1,–,inactive: 1.91%
O=C1C=C(N2CCCCC2)c2ccccc2C1=O,active: 35.5 µM,–
Cc1nn(S(=O)(=O)c2cccs2)c(C)c1Sc1ccc([N+](=O)[O-])cc1,–,inactive: 4.76%
CC(=O)c1ccccc1OC(=O)CCN1C(=O)c2ccccc2C1=O,"inconclusive [inhibitor, single point]",–
Fc1ccc(-[n+]2nc(Nc3ccccc3)sc2-c2c(Cl)cccc2Cl)cc1,"inconclusive [inhibitor, full curve]",–
CC(C)(C)C(=O)NC(=S)NNC(=O)c1sc2ccccc2c1Cl,–,inactive: 5.29%
O=C1NC(=O)C(c2ccccc2)(c2ccc(Cl)cc2Cl)N1 (stereo not drawn),"inconclusive [inhibitor, partial curve]",–
CCOC(=O)CSc1nc2c(c(=O)n(C)c(=O)n2C)n1Cc1ccccc1F,"inconclusive [inhibitor, partial curve]",–
COc1cc(OC)cc(C2=NC3(CCC(C)CC3)NC2=S)c1 (stereo not drawn),"inconclusive [inhibitor, partial curve]",–
Cc1cccc(C)c1OCC(=O)Nc1ccccc1N1CCCCC1,active: 10 µM,–
CCOC(=O)C1C(=O)C=C(c2ccccc2)CC1c1ccccc1 (stereo not drawn),"inconclusive [inhibitor, partial curve]",–
NC(=O)C(NN=C(c1ccccc1)c1ccccc1)c1ccccc1 (stereo not drawn),"inconclusive [inhibitor, partial curve]",–
NC(=O)c1sc(-c2ccsc2)cc1NS(=O)(=O)c1ccc(C(F)(F)F)cc1,"inconclusive [inhibitor, partial curve]",–
Cc1nc2c(C(=O)NCc3ccc4c(c3)OCO4)c[nH]n2c(=O)c1Cl,"inconclusive [inhibitor, partial curve]",–

SMILES,Potency,"activity, negative = inhibition"
CCCCOC(=O)CSc1nnc(-c2ccc(Cl)cc2Cl)o1,"inconclusive [inhibitor, single point]",–
COc1ccccc1CC1(C)C(=O)Nc2ccc(OC(F)(F)F)cc21 (stereo not drawn),"inconclusive [inhibitor, full curve, poor fit]",–
Cc1nc(N2N=C(c3ccc(Cl)cc3)CC2c2ccco2)sc1C(=O)N(C)C (stereo not drawn),"inconclusive [inhibitor, partial curve]",–
CN(C)c1ccc(S(=O)(=O)NCC(=O)OCC(=O)NC(=O)C2CCCCC2)cc1[N+](=O)[O-],"inconclusive [inhibitor, single point]",–
COc1ccc(CN(C)CC(=O)Nc2ccccc2C(F)(F)F)cc1,"inconclusive [inhibitor, partial curve]",–
COCCNC(=O)c1ccc(N2CC3CC(C2)c2cccc(=O)n2C3)c(NC(=O)c2ccc(F)cc2)c1 (stereo not drawn),–,inactive: 6.35%
COc1ccc(/C=C/C(=O)c2ccc(C(=O)/C=C/c3ccc(OC)c(OC)c3)cc2)cc1OC,–,inactive: 1.25%
CC(C)C[C@@H](COCc1ccc(C(F)(F)F)cc1)N1CCN(C(=O)c2ccc(C(F)(F)F)cc2)CCC1=O,"inconclusive [inhibitor, full curve, poor fit]",–
CSc1ccccc1OCc1cc(C(=O)N2CCN(C)C(c3ccccc3)C2)no1 (stereo not drawn),–,inactive: -3.81%
O=C(/C=C\NCC(=O)c1ccccc1)c1ccc2ccccc2c1,–,inactive: 4.85%
NS(=O)(=O)c1ccc(N=Nc2c(O)ccc3ccccc23)cc1,–,inactive: 16.9%
COc1cc(SC)ccc1C(=O)N1CCc2ccccc21,–,inactive: -15%
Cc1cc2[nH]c(=O)c(=O)[nH]c2cc1S(=O)(=O)Nc1cccc(Cl)c1C,–,inactive: 15.6%
CCO[C@H]1OC(C(=O)Nc2ccccc2)=C[C@@H](c2ccc(Br)cc2)[C@@H]1CCCO,"inconclusive [inhibitor, full curve]",–
COC(=O)CSc1nc(COc2ccccc2)nc2ccccc12,"inconclusive [inhibitor, partial curve]",–
CC(O)(c1ccccc1)c1nc(-c2ccc(F)c(Cl)c2)cs1 (stereo not drawn),"inconclusive [inhibitor, single point]",–
COc1ccccc1C1CCN(c2ccc(CO)cc2[N+](=O)[O-])CC1,"inconclusive [inhibitor, partial curve]",–
CC1=C(C(=O)OCc2ccccc2)C(c2ccc3ccccc3c2)NC(=O)N1CCCCCC(=O)O (stereo not drawn),"inconclusive [inhibitor, partial curve]",–
CC(C)(C)C1CCC(=O)N(CCOc2ccccc2)CC1 (stereo not drawn),"inconclusive [inhibitor, partial curve]",–
CCOc1ccc2nc(S(=O)(=O)NC(=O)C3(C)CCN3C(=O)CCc3cccs3)sc2c1 (stereo not drawn),"inconclusive [inhibitor, single point]",–
O=C(Nc1ccc(Cl)cc1N1CCOCC1)C1CCCCC1,–,inactive: -7.1%
O=C(NCCc1ccccc1)C1CCCN(C(=O)Nc2ccc(F)cc2)C1 (stereo not drawn),"inconclusive [inhibitor, single point]",–
COC(=O)C1=NN(c2ccc(C)cc2)C2(S1)SC(C(C)=O)=C(C)N2c1ccccc1 (stereo not drawn),active: 3.16 µM,–

SMILES,Potency,"activity, negative = inhibition"
CC1CCCCN1CCNC(=O)c1ccc2c(=O)n(Cc3ccc(Cl)cc3)c(=S)[nH]c2c1 (stereo not drawn),"inconclusive [inhibitor, full curve, poor fit]",–
CCOC(=O)c1c(-c2ccccc2)csc1NC(=O)C(C)NCc1ccco1 (stereo not drawn),active: 44.7 µM,–
Cn1c(N)c(C(=O)COC(=O)CCCc2c[nH]c3ccccc23)c(=O)n(C)c1=O,"inconclusive [inhibitor, partial curve]",–
CCC1SC2=NC(C)=C(C(=O)OC)C(c3cccs3)N2C1=O (stereo not drawn),"inconclusive [inhibitor, partial curve]",–
Cc1cc(C)cc(N(C(=O)c2cccs2)C2C=CS(=O)(=O)C2)c1 (stereo not drawn),"inconclusive [inhibitor, partial curve, poor fit]",–
O=C(O)c1ccc(-n2ncc3c2/C(=C/c2cccc([N+](=O)[O-])c2)CC3)cc1,–,inactive: -19.7%
NC(=NCCCCCCN=C(N)/N=C(\N)Nc1ccc(Cl)cc1)/N=C(\N)Nc1ccc(Cl)cc1,"inconclusive [inhibitor, single point]",–
CC(C)(C)C(=O)OCc1nc(-c2ccc(O)c(O)c2)cs1,"inconclusive [inhibitor, full curve]",–
COc1cccc(-n2cnc3scc(-c4cccs4)c3c2=O)c1,–,inactive: -14.6%
CC(C)C[C@@H](CSc1ccc(Br)cc1)N1CCN(CCc2ccccc2)CCC1=O,–,inactive: -7.28%
COc1c(-c2ccccc2)oc2c(ccc3occc32)c1=O,"inconclusive [inhibitor, full curve]",–
COc1cccc2c1C(CCCC(=O)O)CCC2 (stereo not drawn),"inconclusive [inhibitor, single point]",–
COc1ccc(-c2nc3ccccc3n2CCC(C)C)cc1OC,"inconclusive [inhibitor, partial curve]",–
COc1cccc(C(=O)C(CCC#N)c2ccccc2)c1 (stereo not drawn),"inconclusive [inhibitor, partial curve]",–
COC(=O)c1c(NC(=O)/C=C/C(=O)O)sc(Cc2ccccc2)c1C,–,inactive: -9.28%
COc1cnc(-c2ccccc2)c(-c2ccccc2)n1,"inconclusive [inhibitor, partial curve]",–
COCCn1c(SCc2cccc([N+](=O)[O-])c2)nc2ccccc2c1=O,"inconclusive [inhibitor, full curve]",–
COc1cccc2sc(N3CCN(c4nc5ccccc5s4)CC3)nc12,"inconclusive [inhibitor, single point]",–
NC1=NC[C@H](Cc2ccccc2)N1CCCCC1CCCCC1,"inconclusive [inhibitor, single point]",–
CN(C)/C=C1\C=C2C(=O)c3ccccc3N2C1=O,–,inactive: 418%
CCOc1ccc(C(=O)OCC(=O)NCc2ccco2)cc1OCC,"inconclusive [inhibitor, single point]",–
CC(C)C[C@H](NC(=O)OC(C)(C)C)c1nnc(SCc2cccc(F)c2)o1,"inconclusive [inhibitor, partial curve, poor fit]",–
